About 65 (0.1%) of roughly 45,000 compounds were called active. Calls follow the shape of the dose curve; as a rule, active = well fitted activation curve with a large enough effect; inconclusive = small, poorly fitted or top-dose-only effect; inactive = no such curve, though single readings can be large or run the other way. Some of the results follow.
biological target: Galactocerebrosidase (Homo sapiens) (UniProt P54803); test: A Novel Cell-Based Assay to Identify Small Molecules for B -Galactocerebrosidase; details: 145M-Twi-hGALC-G270D cells (Twitcher mouse brain line with human GALC G270D), HMU-beta-Gal fluorescence, 48 h; series mostly up to 57.5 µM; activation: at the top concentration; also: 0% is about no effect; nearly all actives have a fitted effect of over 65% in size
How it was run: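 Fluorogenic HMU-b-Gal hydrolysis (0.1 mM final, pH 5.2 citrate-phosphate with 1 mg/mL sodium taurocholate; carbonate stop buffer) measures mutant GALC activity after compound treatment of live 145M-Twi Twitcher brain cells stably carrying human GALC-G270D, with wild-type GALC line alongside; activation sought.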

UniProt P54803, sequence (P54803 whole entry, looked up): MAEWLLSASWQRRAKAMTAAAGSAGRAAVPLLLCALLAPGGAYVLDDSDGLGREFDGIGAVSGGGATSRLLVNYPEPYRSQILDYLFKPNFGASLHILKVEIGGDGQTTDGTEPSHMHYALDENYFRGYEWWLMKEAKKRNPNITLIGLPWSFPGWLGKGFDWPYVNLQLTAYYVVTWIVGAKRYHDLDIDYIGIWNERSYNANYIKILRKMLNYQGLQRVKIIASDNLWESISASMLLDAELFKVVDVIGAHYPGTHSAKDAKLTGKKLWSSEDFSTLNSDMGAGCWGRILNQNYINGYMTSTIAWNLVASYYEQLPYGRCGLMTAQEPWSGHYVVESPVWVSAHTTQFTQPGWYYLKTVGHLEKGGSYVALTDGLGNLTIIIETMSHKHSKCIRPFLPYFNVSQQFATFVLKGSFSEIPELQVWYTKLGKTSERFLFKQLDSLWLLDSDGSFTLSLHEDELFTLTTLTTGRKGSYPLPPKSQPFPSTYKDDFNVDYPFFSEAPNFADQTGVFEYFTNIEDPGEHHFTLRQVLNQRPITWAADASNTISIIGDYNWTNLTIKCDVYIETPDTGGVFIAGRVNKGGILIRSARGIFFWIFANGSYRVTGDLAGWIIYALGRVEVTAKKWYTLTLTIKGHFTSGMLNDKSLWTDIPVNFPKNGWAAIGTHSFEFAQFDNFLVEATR

activation, inactive:
COc1ccc(C(=O)CCC(=O)Nc2ccccc2C)cc1 -14.7%
CC(C)(C)C1CCc2nc(NC(=O)Cc3ccc(Cl)cc3)sc2C1 (configuration not stated) -22.5%
CCC(Sc1nncn2c1cc1sccc12)C(=O)Nc1cccc(OC)c1 (configuration not stated) -5.53%
Cc1cccc(NC(=O)C2CCCN(S(=O)(=O)c3c(C)noc3/C=C/N(C)C)C2)c1C (configuration not stated) -8.15%
COc1ccc(N(C)C(=O)NCc2noc3ccc(C)cc23)c(OC)c1 -13.9%
CCCNC(=O)Nc1cc(C(=O)NCc2cccc(OCC)c2)ccc1N1CCCC1 -9.76%
Cc1cc(C)c2c(=O)cc(CSCC(=O)Nc3nnc(C)s3)[nH]c2c1 7.32%
Cc1cc2nc3c(=O)n(C)c(=O)n(C)c3nc2cc1N=CN(C)C -4.3%
CCOC(=O)CC(NC(=O)Cn1nnc(-c2ccccc2C)n1)c1ccc(OC)cc1 (configuration not stated) -10.2%
CCC(=O)N1CCc2cc(Br)cc(S(=O)(=O)CCC(=O)Nc3ccccc3C)c21 -3.1%
C/C(=C(\CCOP(=O)(O)O)SC(=O)c1ccccc1)N(C=O)Cc1cnc(C)nc1N -8.51% [at 5.77 µM]
Cc1ccc(CN2CCN(C3CCN(C(=O)OC(C)(C)C)CC3)C(=O)C2=O)cc1 -0.364%
CCN(CC)CCCNC(=O)c1oc2c(c1C)-c1nn(Cc3ccc(Cl)cc3)cc1CC2 -11.1%
Cc1ccc2occ(CC(=O)Nc3ccc(S(N)(=O)=O)cc3)c2c1 -11.6%
COc1ccc(NC(=O)CCc2c(C)nn(-c3ccc(N4CCOCC4)nn3)c2C)cc1Cl 2.01%
COc1ccc(-c2nc(SCC(=O)NCCCc3ccccc3)n[nH]2)cc1 -5.18%
CCOc1ccc(C2c3c(-c4ccccc4O)n[nH]c3C(=O)N2Cc2ccncc2)cc1 (configuration not stated) -7.47%
CCc1ccc(C(=O)c2cn(CC(=O)Nc3ccc(F)cc3)c3cc4c(cc3c2=O)OCO4)cc1 -16.4%
Cc1cc(OCC(=O)Nc2sc3c(c2C(N)=O)CCCC3)ccc1C(C)C 5.4%
Cc1cccc(-c2noc(C3CC(=O)N(c4ccc5c(c4)OCCO5)C3)n2)c1 (configuration not stated) -16.9%
Cc1ccc(N(CC(=O)NC(C)c2ccccc2)S(=O)(=O)c2c(C)noc2C)cc1 (configuration not stated) -18.2%
COc1ccc(NC(=O)Cn2c(C)c3cnn(-c4ccccc4)c(=O)c3c2C)c(OC)c1 -16.5%
CN(C(=O)CCNC(=O)Cn1cnc2ccccc2c1=O)c1ccccc1F -1.53%
CCCn1c(=O)n(-c2ccccc2)c(=O)c2sc3ccccc3c21 -10.3%
CCOc1ccc(CCNC(=O)CN2CCN(Cc3ccc(F)cc3Cl)C2=O)cc1OCC -13%
C=CCc1c(C)nc2nc(SCC(=O)Nc3ccccc3CC)nn2c1C -12.7%
COc1cccc(-c2nc3c(c(SCc4ccccc4)n2)Cc2c(CO)cnc(C)c2O3)c1 -13.8%
NC(=O)c1cc(S(=O)(=O)NCc2ccccc2)cs1 4.68%
CC(C)Cc1nn2c(=O)cc(COC(=O)c3cccc(NC(=O)CCc4ccccc4)c3)nc2s1 -20.2%
C=Cc1ccc(CSc2nc(-c3ccc(OC)cc3)nc3c2Cc2c(CO)cnc(C)c2O3)cc1 -3.74%
CCOC(=O)CSc1nc2cc3c(cc2c(=O)n1CCCC(=O)NCc1ccc2c(c1)OCO2)OCO3 -5.26%
CCCOc1ccccc1C(=O)N1CCC(c2nc3ccccc3s2)CC1 -12.1%
NCCc1nnc(SCc2ccc(Cl)cc2)o1 -0.451%
COc1ccccc1C(=O)Nc1nc2ccc(S(=O)(=O)N3CCCC3)cc2s1 -10.9%
COc1ccc(C(=O)CN2C(=O)N(c3cc(C)cc(C)c3)S(=O)(=O)c3ccccc32)cc1 -7.55%
Clc1ccc(CCNc2ncnc3c2c(-c2ccccc2)cn3-c2ccccc2)cc1 -11.8%
COc1cc(C(=O)Nc2cc(C)ccc2OCc2cc(=O)n3cc(C)sc3n2)cc(OC)c1OC -3.83%
CCOC(=O)c1ccc(Nc2c(-c3ccc(O)cc3)nc3nc[nH]n23)cc1 -11.2%
Cc1ccccc1CS(=O)(=O)Cc1ccc(C(=O)NCCc2ccccc2)o1 -8.78%
COc1ccccc1CNC(=O)Cn1ncc2c(=O)oc3ccc(C)cc3c21 -21%
Cc1ccc(Nc2c(-c3ccc(C)cc3)nc3cnccn23)cc1 0.848%
CCCCC(=O)Nc1cccc(OCc2cc(=O)n3ccccc3n2)c1 -4.72%
CC(=O)Nc1c(C)nn(-c2ccccc2)c1N1CCC(C(=O)Nc2cc(Cl)ccc2C)CC1 1.89%
CCc1ccccc1NC(=O)c1cc(S(=O)(=O)NCCc2ccc(OC)c(OC)c2)ccc1F -28.4%
CCOc1ccc(NC(=O)C(C)Sc2nnc3cc(C)c4ccccc4n23)cc1 (configuration not stated) -9.69%
Cc1nnc(NC(=O)c2nc(S(=O)(=O)Cc3ccccc3)ncc2Cl)s1 -17.2%
CCOC(=O)c1ccc(NC(=O)c2oc3ccc4c(c3c2C)C(=O)CC(C)(CC)O4)cc1 (configuration not stated) -33.3%
Cc1ccc(NC(=O)CSc2nc3c(c(=O)[nH]2)CN(Cc2ccc4c(c2)OCO4)CC3)cc1C -11.7%
Cn1c(=O)c2c(SCC(=O)NCc3ccco3)nc(-c3ccccc3Cl)nc2n(C)c1=O -13.2%
CCOC(=O)C1CCCN(c2ncnc3c2cnn3-c2ccc(C)c(Cl)c2)C1 (configuration not stated) -24.2%
CC(C)c1ccc(CNCCSc2nnnn2C)cc1 -19.3%
COc1ccc(C)cc1NC(=O)C(=O)NCCc1csc(-c2ccc(C)cc2)n1 -5.79%
C=C[C@@]1(C)CC(=O)[C@]2(O)[C@@]3(C)[C@@H](O)CCC(C)(C)[C@@H]3[C@H](O)[C@H](OC(C)=O)[C@@]2(C)O1 -11.6%
O=C(O)[C@@H]1CSCN1 -4.58%
Cc1cc2nc3ccc(=[N+](C)C)cc-3sc2cc1N -7.6%
CCCOc1ccc(C2c3c(-c4ccccc4O)n[nH]c3C(=O)N2Cc2ccncc2)cc1OCC (configuration not stated) -11.8%
Cc1cccc(NC(=O)C(=O)NCC(c2cccnc2)N2CCOCC2)c1 (configuration not stated) -10%
O=C(Cc1ccc(F)cc1)N1CCC(c2nc3c(nnn3Cc3ccc(Cl)cc3)c(=O)[nH]2)CC1 -8.86%
COc1ccc(-c2noc(C3CC(=O)N(c4cc(C)cc(C)c4)C3)n2)cc1 (configuration not stated) -12%
CN(C(=O)CSc1cn(CC(=O)N2CCCCC2)c2ccccc12)c1ccccc1 -9.75%
CCc1nn(CC(=O)Nc2cccc(C)c2C)c(=O)c2cc3sccc3n12 -37%
CCOC(=O)c1c(C)c(C(=O)NCCc2ccc(OC)cc2)c(C)n1C -16.1%
Cc1ccc(CCNC(=O)C2CCCN(Cc3nc(-c4cccc(Cl)c4)oc3C)C2)cc1 (configuration not stated) -22.7%
CC1=C(C(=O)Nc2ccc(Cl)cc2)C(C(C)C)n2nc(SCc3cccc(C)c3)nc2N1 (configuration not stated) -11.1%
CN1CCN(CCCNC(=O)c2cnn(-c3ccccc3)c2C2CCN(C(=O)OC(C)(C)C)CC2)CC1 -1%
CCC(C)NC(=O)c1ccc2c(c1)N(Cc1ccccc1)C(=O)c1ccccc1S2(=O)=O (configuration not stated) -1.44%
Cc1ccc2nc(-c3ccccn3)c(Nc3ccc(F)cc3)n2c1 -13.4%
CCC(Oc1ccccc1)C(=O)Nc1ccccc1OCc1cc(=O)n2ccccc2n1 (configuration not stated) -13%
COc1cccc(-n2ccnc2SCC(=O)Nc2cccc(C)c2C)c1 -14.5%
COc1ccc(-c2nc3c(C#N)c[nH]n3c2NC2CCCCC2)c(OC)c1 -11.7%
COc1ccc(-n2ncc(C(=O)NCc3ccccc3)c2C2CCN(C(=O)OC(C)(C)C)CC2)cc1 -5.94%
CCc1ccc(NC(=O)Cn2cnc3sc(C)c(S(=O)(=O)N4CCC(C)CC4)c3c2=O)cc1 -1.14%
CCCC(=O)NCC(c1ccc2c(c1)OCO2)N1CCN(c2ccc(F)cc2)CC1 (configuration not stated) -9.46%
CCOc1ccccc1CNC(=O)Nc1cn(CC(C)C)c(=O)c2ccccc12 -23.3%
Cc1ccc(OCc2nc3ccccc3n2CC(C)C)cc1 -14.2%
COc1ccc(CCNC(=O)CCn2c(=O)c3cccn3c3ccc(F)cc32)c(OC)c1OC -16.7%
CCCN(C(=O)c1cc2c(s1)-c1ccccc1SC2)c1ccccc1F -8.91%
COc1ccc(N(CC(=O)NC(C)c2ccccc2)S(=O)(=O)c2c(C)noc2C)cc1 (configuration not stated) -9.64%
Cc1ccc(CN2CCC(CNc3ncnc4onc(-c5ccc(Cl)cc5)c34)CC2)cc1 -13.1%
CC1(c2ccc(Cl)cc2)CC(C)(C)N(C(=O)c2ccccc2)c2ccccc21 (configuration not stated) 1.88%
CC(Oc1ccccc1)C(=O)Nc1nc2ccc(S(N)(=O)=O)cc2s1 (configuration not stated) -15.4%
Cc1cc2c(cc1S(=O)(=O)NCc1ccc(N(C)C)cc1)OCC(=O)N2 -13.5%
CC(C)(C)NS(=O)(=O)c1ccc2nc(NC(=O)c3cccnc3)sc2c1 -10.5%
COC(=O)CNC(=O)Nc1cc(C(=O)NCc2ccc(C)cc2)ccc1N1CCCC1 -28.8%
CCOC(=O)c1noc2ncnc(N3CCN(c4ccccc4OC)CC3)c12 -3.72%
CCOC(=O)c1c(C)c(-c2ccccc2)n(CC(=O)Nc2cc(OC)cc(OC)c2)c1C 1.9%
COc1cc(C2NC(=O)NC(C)=C2C(=O)Nc2cc(C)cc(C)c2)ccc1O (configuration not stated) 1.67%
O=C(CSc1nc2ccccc2c2nc(-c3ccccc3)nn12)Nc1ccc(Br)cc1 -16.4%
CC(C)(C)c1cc(C(C)(C)C)c2oc(=O)c(-c3nc4ccccc4[nH]3)cc2c1 -11.7%
CCc1cc(C(=O)Nc2c(C)nn(Cc3ccc(C)cc3)c2C)no1 -8.95%
Cc1ccc(Cn2c(SCC(=O)NCc3ccc(Cl)cc3)nc3ccsc3c2=O)cc1 -27.1%
COc1ccc(C)cc1NC(=O)c1oc2ccc(S(=O)(=O)N(C)C3CCCCC3)cc2c1C -14%
CC(=O)N1c2ccccc2CC1C(=O)N1CCN(c2ccc(F)cc2)CC1 (configuration not stated) -14.3%
COC(=O)C1CCN(S(=O)(=O)c2cc3c4c(c2)C(C)C(=O)N4CCC3)CC1 (configuration not stated) -7.7%
O=C(Nc1ccc(F)cc1F)c1ccc(CN2CC(=O)N3CCCCC3C2=O)cc1 (configuration not stated) -3.36%
COc1cccc(N2CCN(C(=O)C3CCC(CNS(=O)(=O)c4ccc(Br)s4)CC3)CC2)c1 (configuration not stated) -33.6%

Potency, inactive:
CCN(CC)C(=S)SSC(=S)N(CC)CC

Source: PubChem BioAssay AID1159614 (National Center for Advancing Translational Sciences (NCATS), 2016)
